Test results as given in PubChem BioAssay (NCI).
Some compounds were tested as several samples or in several runs, with calls that do not always agree.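 The endpoint reported here, percent growth, reads 100 for growth as untreated, 0 for no net growth and -100 for all cells dead.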 A number of entries come with more than one value. The list is limited to them. An entry can have further records. For part of these data: This drug was run again and again over the years, at its own concentration, as given; each value is one run. Additions like (4×) count equal records among those shown. Some values that stand alone complete this part of the results. Activity calls are given as the source filed them. How the source made its calls: active means growth percent below 10; inactive means the rest.

How the values were obtained:
[1] = test system: HS 578T breast; assay: NCI-60 one-dose screen, 48 h (100 = growth as untreated, 0 = no growth, -100 = all killed); details: 25 µM
[2] = test system: NCI/ADR-RES ovarian; assay: as above; details: 0.25 µM

Question: For `COc1cccc2c1C(=O)c1c(O)c3c(c(O)c1C2=O)C[C@@](O)(C(=O)CO)C[C@@H]3OC1CC(N)C(O)C(C)O1` (stereo not given in full), which growth ([1]; runs of 1993) is on record?
Answer: active: -25.9, -44.2, -18.3, -44.1, -46.6, -19.5, -53.9, -29.7, -15.1 (2×), -33.8, -41.5, -39, -55.1, -28.4, -29.2, -32.3, -60.8, -43.3, -47, -51.3, -31.3, -38.4, -51.5, -56.6, -20.5, -59.9, -23.5, -54.2, -43, -39.9, -55, -38.1, -72.3, -58.8, 7.12, -42.4, -39.1, -37.1, -33.1, -13.4, -7.49, -19.9%

Question: And the growth ([1]; runs of 1994)?
Answer: active: -47.8, -27.1, -31.9, -49.8, -24.4, -29.3, 9.43, -49.2, -60.4, -21, -35.9, -60.3, -29, -46.5, -29.8, -5.65, -36.8, -38.8, -45.8, -37, -42, -30.5, -29.9, -48.3, -28.4 (2×), -34.6, -18.5, -13.8%

Question: And the growth ([1]; runs of 1995)?
Answer: active: -45.4, -30.6, -40.4, -38.1, -16.9, -9.48, -31.1, -25.5, -33.4, -30.5, -33, -18.5, -30.2, -32.2, -36.9, -44.7, -58.4, -41.3, -62.1, -67.6, -31.4, -36.8, -60.1, -9.24, -55.3, -29.5, -26.9, -54.5, -40, -56.8, -36.5, -22.6, -23.2, -28.8, -38.8% and inactive: 10.9%, 12%

Question: And the growth ([1]; runs of 1996)?
Answer: active: -40.5, -44.4, -41.6, -31.4, -40.1, -21.2, -18.6, -26.2, -25.3, -19.8, -13.4, -31.3, -19.2, -22.1, -27.7, -42, -34.6, -6.85, -30.4, -52, -49.9, -55.9, -53.3, -41.1, -40.3 (2×), -49.5 (2×), -64.5, -44.8, -50.9, -32.2, -51.8, -53.2, -64, -43.9, -39.8, -48.6, -24.7, -27.9, -38.9, -33.2, -66, -50, -34.9, -11.1, -72.3, -46.6% and inactive: 94.5%, 90.8%

Question: And the growth ([1]; runs of 1997)?
Answer: active: -5.26, 2.56, -44.6, -35.8, -34.7, -22.1, -29.2 (2×), -52.5, -38.4, -46.5, -47.9, -53.3, -38.2, -30.5, -31.8, -55.4, -40.1, -28.8, -32.6, -47.2, -27.6, -48.5, -34.5, -13.3, -32.1, -42.4, -21.2, -37.1, -36.9, -36.7, -33.5, -8.85, -47.5, -43.5, -8.98, -32.2, -76.7, -54.8%

Question: And the growth ([1]; runs of 1998)?
Answer: active: -44.6, -65.6, -32.3, -13.6, -70.2, -56.9, -39.1, -19.1, -67.9, -25, -43.1, -48.7, -26.8% and inactive: 19.4%, 14.5%, 17.9%

Question: And the growth ([1]; runs of 1999)?
Answer: active: -67.3, -29.6, -43.5, -60.9, -100 (2×), 1.07, -67, 3.27, -58.8, 2.49, -52.7, -48.1%

Question: What about the growth ([1]; runs of 2000) of the same compound?
Answer: active: -59.8%

Question: And the growth ([2]; runs of 2006)?
Answer: inactive: 96.3%, 100%

Question: And the growth ([2]; runs of 2007)?
Answer: inactive: 85.7, 87.5, 104 (2×), 106 (3×), 99.2 (2×), 150, 89.3, 95, 98.6, 99, 86.7, 101 (2×), 103 (2×), 111, 117, 42.2, 96.2, 97 (2×), 105 (2×), 115, 90.5, 67.5, 37.5, 107 (2×), 126, 116, 94.7, 95.2, 96.5%

Question: What about the growth ([2]; runs of 2008) of the same compound?
Answer: inactive: 94.6, 95.2, 104 (4×), 98.8, 100 (6×), 103 (2×), 93.4, 90.9, 97.7 (2×), 98.9, 99.6, 124, 94.7 (2×), 93.3 (2×), 99.7, 89.8, 112 (2×), 96.3, 97.3, 85, 117, 94.5, 110, 92.1, 92.3, 92.6, 96.4 (2×), 99.9, 88.5, 99.5, 98.2, 113, 105 (2×), 107, 98.1, 75.4%

Question: What about the growth ([2]; runs of 2009) of the same compound?
Answer: inactive: 89.6, 91.9 (2×), 87.3 (2×), 97.8, 96.6 (2×), 111 (3×), 112, 104 (2×), 95.2, 98.4, 110, 103 (4×), 96.4, 97.4, 101 (2×), 86.9, 97.3, 92.1, 108, 95.8 (2×), 95.4, 115, 99.3, 88.5, 89.8, 95, 105 (2×), 89.2, 87, 96.3, 96.2, 94.5, 86.8, 98.1, 107 (2×), 99, 106 (3×), 97.2, 95.7, 97.1, 98.7, 96.5%

Question: What about the growth ([2]; runs of 2010) of the same compound?
Answer: inactive: 105 (6×), 95.2 (2×), 99.1 (2×), 103 (6×), 100 (4×), 108 (2×), 97.6, 99, 106 (3×), 104 (6×), 91.8, 89.6, 101 (2×), 83.1, 85.4, 96.4, 98, 83.7, 98.7, 90.9, 98.6, 110%

Question: And the growth ([2]; runs of 2011)?
Answer: inactive: 108, 105 (3×), 107 (3×), 103 (9×), 96, 98.7 (4×), 106 (4×), 104 (6×), 97.7, 99.7, 99.5, 94.4, 101 (3×), 97.8, 94.5, 95.4, 98.6, 95.6, 99.6 (2×), 100, 97.3, 94, 96.7%

Question: And the growth ([2]; runs of 2012)?
Answer: inactive: 104 (4×), 97.4 (2×), 101 (9×), 105 (3×), 103 (4×), 109 (3×), 110 (6×), 98.8, 96.9, 106 (2×), 95.6, 100 (3×), 99.5, 107 (4×), 114, 93.9, 113 (3×), 112 (3×), 111 (5×), 108 (2×), 116, 93.4%
